Several values for one entry are separate records, joined by “and”; a condition that tells them apart may be missing. Equal entries are not always repeated. Inconclusive means that the source gave no clear call. Such entries were picked first, then a sample of the others. Potencies of inconclusive entries are doubtful fits and often do not repeat. Activity calls are given as the source filed them. The call rests on the fitted dose curve; in most records, active means well fitted cell-killing curve with a large enough effect; inconclusive means small, poorly fitted or top-dose-only effect; inactive means no such curve, though single readings can be large or run the other way.
Experiment: qHTS of pediatric cancer cell lines to identify multiple opportunities for drug repurposing: Primary screen for LAN-5 cells (AID 1347100)
Details: LAN-5 neuroblastoma viability, CellTiter-Glo luminescence, 48 h; series mostly up to 46 µM
Source text: Drug repurposing or repositioning has been offered as a strategy for drug development in oncology programs. This approach has special potential for childhood cancers and other rare or orphan diseases, where the expected return on new drug development has been a disincentive to pharmaceuticals.
In this project we exploit the poly-pharmacology of drugs to discover new indications via phenotypic screening of a panel of 19 well-characterized cell lines derived from solid tumors seen in children and adolescents. The goal is to identify approved drugs with previously unrecognized anticancer properties that has the potential to reveal new mechanisms and biological processes involved in carcinogenesis or drug resistance. We employed a titration-based paradigm (quantitative high-throughput screening or qHTS), where all compounds were tested at multiple concentrations for their effect on cell viability. Concentration-response curves (CRCs) were derived directly from the primary screen, and both potency and efficacy values were used to identify compounds with robust bioactivity profiles. We screened the NIH Chemical Genomics Center (NCGC) Pharmaceutical Collection (NPC) and Mechanism Interrogation Plate (MIPE) small molecule collections of approved and investigational compounds against these cell lines; and measured metabolically active cells after 48 hours of compound treatment as a proxy for cell viability.
Assay Submitter: Nathalia J. Martinez, National Center for Advancing Translational Sciences, National Institutes of Health, Rockville, MD, USA; email: natalia.martinez@nih.gov
[1] Shen, M et al. Quantitative high-throughput phenotypic screening of pediatric cancer cell lines identifies multiple opportunities for drug repurposing. Oncotarget 2017 Dec 19;9(4):4758-4772. PMID 29435139.
The cells were obtained from University of North Carolina (UNC), Pediatric Preclinical Testing Program (PPT), and Coriell Institute (CI).
qHTS cell viability assay:
Cells were assayed in growth media at a density of 500-1,000 cells/well. Five microliters of cells were dispensed into 1,536-well, white, solid-bottom, TC-treated plates (Greiner Bio One) using a multidrop dispenser and incubated at 37 degrees C, 5% CO2, under a humidified atmosphere for 5 hours. Twenty-three nanoliters of compounds and controls (neutral control DMSO or positive control bortezomib at final concentration of 2.3 µM) were subsequently transferred by Kalypsys pintool. For primary screens, the MIPE collection was tested at 11-point dilutions (final concentrations range from 0.78 nM to 46 µM) and the NPC collection at 8-point dilutions (final concentrations range from 0.59 nM to 46 µM). Compounds tested in follow-up screens were assayed at 11-point dilutions. Cells were incubated for 48 hours, followed by addition of 3 µL of CellTiter-Glo (Promega). After a 15 min incubation at room temperature, samples were analyzed for luminescence intensity using a ViewLux High-throughput CCD imager equipped with clear filters.
Potency means the concentration at half of the fitted maximal effect; tags describe the fitted curve by direction and shape.

| SMILES | Potency |
| --- | --- |
| C[C@@H]1CC(=O)NN=C1c1ccc(NN=C(C#N)C#N)cc1 | inconclusive: 33.5 µM [cytotoxic, single point] and inconclusive: 33.2 µM [cytotoxic, single point] |
| Cc1c(C(=O)Nc2ccc(N3C[C@@H](C)O[C@@H](C)C3)nc2)cccc1-c1ccc(OC(F)(F)F)cc1 | inconclusive: 26.4 µM [cytotoxic, single point] |
| CCN1CCN(c2ccc(Nc3cc(N(C)C(=O)Nc4c(Cl)c(OC)cc(OC)c4Cl)ncn3)cc2)CC1 | inconclusive: 11.8 µM [cytotoxic, partial curve] |
| Cc1[nH]c(C=C2C(=O)Nc3ccc(S(=O)(=O)N(C)c4cccc(Cl)c4)cc32)c(C)c1C(=O)N1CCN(C)CC1 | active: 9.35 µM |
| O=C(C[C@@H]1CC=CCCC(=O)O[C@H](c2ccccc2)CNC1=O)NCc1ccc(Cl)cc1 | inactive |
| O=c1c(O)c(-c2ccc(O)cc2O)oc2cc(O)cc(O)c12 | inactive |
| Cc1n[nH]c(C)c1Cc1sc2c(c1C(=O)N1C[C@H](O)CO1)c(=O)n(C)c(=O)n2CC(C)C | inconclusive: 1.32 µM [cytotoxic, full curve, poor fit] |
| O=C(NC1CCNCC1)c1[nH]ncc1NC(=O)c1c(Cl)cccc1Cl | inconclusive: 0.264 µM [cytotoxic, full curve] |
| c1ccc(CNc2nc(N3CCOc4ccccc43)nc3c2CCCC3)cc1 | inconclusive: 16.6 µM [cytotoxic, partial curve] |
| NCCCCNCCCN | inconclusive: 20.9 µM [cytotoxic, single point] |
| C=CC(=O)Nc1cc2c(Nc3ccc(F)c(Cl)c3)ncnc2cc1OCCCN1CCOCC1 | active: 6.62 µM |
| CN(C)CC(=O)N1CCC(c2ccc(NC(=O)c3ncc(C#N)[nH]3)c(C3=CCCCC3)c2)CC1 | active: 16.6 µM |
| CN(C)CCN(Cc1ccc(Cl)cc1)c1ccccn1 | inconclusive: 33.2 µM [cytotoxic, single point] |
| Cn1c(CNc2ccc(C(=N)N)cc2)nc2cc(C(=O)N(CCC(=O)O)c3ccccn3)ccc21 | inactive |
| C=C1c2cccc(O)c2C(O)=C2C(=O)[C@@]3(O)C(O)=C(C(N)=O)C(=O)[C@@H](N(C)C)[C@@H]3[C@@H](O)[C@H]12 | active: 13.2 µM |
| CC1CNc2c(cccc2S(=O)(=O)N[C@@H](CCCN=C(N)N)C(=O)N2CC[C@@H](C)C[C@@H]2C(=O)O)C1 (stereo not given in full) | active: 9.35 µM |
| CCCCC(F)(F)[C@@]1(O)CC[C@H]2[C@H](CC(=O)[C@@H]2CCCCCCC(=O)O)O1 | inactive |
| C=CC(=O)N1CCc2ccc(-n3c(=O)ccc4cnc5ccc(-c6cnn(C)c6)cc5c43)cc21 | active: 2.35 µM |
| CNc1nccc(-c2cccnc2Oc2cc(C(=O)Nc3cccc(C(F)(F)F)c3)ccc2C)n1 | active: 16.6 µM |
| CN(C)c1ccccc1CN1CCCN(Cc2ccccc2N(C)C)C1c1ccncc1 | inconclusive: 33.2 µM [cytotoxic, single point] |

| SMILES | Potency |
| --- | --- |
| Cn1c(=O)c2c(ncn2C)n(C)c1=O | inactive |
| COc1c(C)c2c(c(O)c1CC=C(C)CCC(=O)OCCN1CCOCC1)C(=O)OC2 | inconclusive: 3.32 µM [cytotoxic, full curve] |
| Nc1nc(F)nc2c1ncn2[C@@H]1O[C@H](CO)[C@@H](O)[C@@H]1O | active: 11.9 µM and active: 469 nM |
| CC=CC1=C(C(=O)O)N2C(=O)[C@H](NC(=O)[C@H](N)c3ccc(O)cc3)[C@@H]2SC1 | inconclusive: 16.6 µM [cytotoxic, partial curve] |
| CCN(CC)Cc1ccc2cc(COC(=O)Nc3ccc(C(=O)NO)cc3)ccc2c1 | active: 0.526 µM |
| Clc1ccc(COC(Cn2ccnc2)c2ccc(Cl)cc2Cl)c(Cl)c1 (stereo not given) | active: 23.5 µM |
| C[C@@H](NC(=O)c1ncnc(N)c1Cl)c1ncc(C(=O)Nc2cc(C(F)(F)F)c(Cl)cn2)s1 | inconclusive: 16.6 µM [cytotoxic, partial curve] |
| CC=C1NC(=O)[C@H]2CSSCCC=C[C@H](CC(=O)N[C@H](C(C)C)C(=O)N2)OC(=O)[C@H](C(C)C)NC1=O | active: 0.0093 µM |
| O=C(NOC[C@H](O)CO)c1ccc(F)c(F)c1Nc1ccc(I)cc1F | inconclusive: 3.32 µM [cytotoxic, partial curve] |
| C[C@H](CCC(=O)O)[C@H]1CC[C@H]2[C@H]3[C@@H](CC[C@]12C)[C@@]1(C)CC[C@@H](O)C[C@H]1C[C@@H]3O | inconclusive: 6.62 µM [cytotoxic, partial curve, poor fit] |
| COc1cccc(Nc2c(C(N)=O)cnc3c(C)cc(S(=O)(=O)c4cccc(C(=O)N(C)C)c4)cc23)c1 | inconclusive: 16.2 µM [cytotoxic, single point] |
| COc1ccc(C(C)=O)c(O)c1 | inactive |
| Nc1nc(=S)c2[nH]cnc2[nH]1 | inconclusive: 33.5 µM [cytotoxic, single point] |
| Cc1cnc(Nc2cccc(CN3CCOCC3)c2)nc1Nc1cccc(S(=O)(=O)NC(C)(C)C)c1 | active: 1.48 µM |
| COc1ccc(-c2ccc3c(N4CCOC[C@H]4C)nc(N4CCOC[C@H]4C)nc3n2)cc1CO | inconclusive: 0.118 µM [cytotoxic, full curve] |
| CCCCN1CCC(CNC(=O)c2c3n(c4ccccc24)CCCO3)CC1 | inconclusive: 37.2 µM [cytotoxic, single point] |
| CC(C)c1c(C(=O)Nc2ccccc2)c(-c2ccccc2)c(-c2ccc(F)cc2)n1CC[C@H](O)C[C@@H](O)CC(=O)O | inactive |
| C[C@H](c1ccc(F)cc1CCCC(=O)O)N(c1cc(F)ccc1F)S(=O)(=O)c1ccc(Cl)cc1 | inconclusive: 18.7 µM [cytotoxic, partial curve, poor fit] |
| O=c1[nH]nc(OCCCc2ccc(Cl)cc2)c(NCc2cccnc2)c1Br | active: 18.7 µM |
| C[C@]12C=CC(=O)C=C1CC[C@@H]1[C@@H]2[C@@H](O)C[C@@]2(C)[C@@H]1CC[C@]2(O)C(=O)CO | active: 23.5 µM |

From PubChem BioAssay (NCATS)
